In the assay the test system is TYKNU. Kind of assay: fractional viability relative to vehicle; TYKNU is a high-grade serous ovarian cancer line; higher = less growth inhibition. The note with it: 72 h. In a few lines: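 TYKNU control cells or lentiCRISPRv2 knockout derivatives were plated at 500 cells per well in duplicate into drug-stamped 384-well plates holding a ~2100-compound library at 2 or 10 μM. Culture was in RPMI 1640 with 10% FBS at 37 °C in 5% CO2, with 72 h of drug treatment. Viability was measured by Cell Titer Glo luminescence, and the averaged duplicate treatment wells were normalised to duplicate control wells at the same plate position.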

The mark [1] stands for this setting: 2uM, genotype: DNM1L knockout (sgDNM1L #1).
[2] abbreviates: 2uM, genotype: sgCTRLA1 (non-targeting control).
The mark [3] stands for this setting: 10uM, genotype: DNM1L knockout (sgDNM1L #1).
The mark [4] stands for this setting: 10uM, genotype: sgCTRLA1 (non-targeting control).

For 26 molecules, fractional viability results are on record in the supplement of paper PMC5919970.

Molecules are shown by their SMILES. Structures can show the parent of a compound that is named as a salt. In all, about 2,000 compounds were measured (“fractional viability relative to vehicle”: median about 0.91, lowest 2% from about 0.045 on). The list shows a part of the results.

On to `CN(C)C(=O)Oc1cc(OC(=O)N(C)C)cc(C(O)CNC(C)(C)C)c1` (centres undefined) [Bambuterol HCl], for which the fractional viability came to 0.866 under setting [1], 0.949 under setting [2], 0.742 under setting [3] and 0.907 under setting [4].
As for `CCN(C)C(=O)Oc1cccc([C@H](C)N(C)C)c1` [Rivastigmine Tartrate], the fractional viability worked out at 0.961 under setting [1], 1.07 under setting [2], 0.875 under setting [3] and 1 under setting [4].
Take `CCC1(c2ccc(N)cc2)CCC(=O)NC1=O` (centres undefined) [Aminoglutethimide]: the fractional viability by setting is: under setting [1], 1.08; under setting [2], 1.1; under setting [3], 1.02; under setting [4], 0.968.
The matching figures for `C[C@@H]1O[C@@H](O[C@H]2C[C@@H](O)[C@]3(CO)[C@H]4[C@H](O)C[C@]5(C)[C@@H](C6=CC(=O)OC6)CC[C@]5(O)[C@@H]4CC[C@]3(O)C2)[C@H](O)[C@H](O)[C@H]1O` [Ouabain]: 0.05, 0.0369, 0.0346 and 0.0311.
`NCC(O)c1ccc(O)cc1` (racemic) [(+,-)-Octopamine HCl]: the fractional viability reads like this: under setting [1], 1.06; under setting [2], 1.1; under setting [3], 0.781; under setting [4], 1.15.
Regarding `NC(=O)CN1CCCC1=O` [Piracetam], the fractional viability was 1.25 under setting [1], 1.06 under setting [2], 0.956 under setting [3] and 0.98 under setting [4].
Consider `O=P1(NCCCl)OCCCN1CCCl` (centres undefined) [Ifosfamide], for which the fractional viability worked out at 1.04 under setting [1], 1.03 under setting [2], 0.935 under setting [3] and 0.974 under setting [4].
As for `CC[C@@H]1/C=C/C=C/C[C@H](C)[C@H](O)[C@](C)(O)C(=O)[C@H](C)[C@@H](O)[C@H](C)C(=O)[C@H](C)[C@@H](O)[C@H](C)/C=C/C(=O)O[C@H]2[C@@H](C)[C@@H](CC1)O[C@@]1(CC[C@@H](C)[C@@H](C[C@H](C)O)O1)[C@@H]2C` [Oligomycin A], the fractional viability runs as follows: under setting [1], 0.691; under setting [2], 0.555; under setting [3], 0.422; under setting [4], 0.413.
Regarding `CC(C)(C)[C@]1(O)CC2OC(=O)CC23C(=O)OC2OC(=O)[C@H](O)C231` (some centres undefined) [Bilobalide], the fractional viability runs as follows: under setting [1], 0.854; under setting [2], 1.09; under setting [3], 0.975; under setting [4], 1.11.
The corresponding values for `Cc1cc(SCc2sc(-c3ccc(C(F)(F)F)c(F)c3)nc2C)ccc1OCC(=O)O` are 0.782, 1.02, 0.769 and 0.768.
Regarding `O=C(O[C@H]1C[N+]2(CCCOc3ccccc3)CCC1CC2)C(O)(c1cccs1)c1cccs1` [Aclidinium Bromide], the fractional viability was determined as 1.23 under setting [1], 1.02 under setting [2], 0.871 under setting [3] and 0.952 under setting [4].
As for `CN[C@@H]1C[C@H]2O[C@@](C)([C@@H]1OC)n1c3ccccc3c3c4c(c5c6ccccc6n2c5c31)C(=O)NC4` [Staurosporine], the fractional viability under setting [1] stood at 0.092, the fractional viability under setting [2] came to 0.066, the fractional viability under setting [3] stood at 0.0336 and the fractional viability under setting [4] turned out to be 0.0269.
Regarding `O=C1CCC[C@@H]2[C@H]3CCCN4CCC[C@@H](CN12)[C@@H]34` [(+)-Matrine], the fractional viability came out at 0.865 under setting [1], 1.03 under setting [2], 0.795 under setting [3] and 1 under setting [4].
With `Cc1cccc(C)c1NC1=NCCCS1` [Xylazine HCl], the fractional viability under setting [1] was determined as 0.893, the fractional viability under setting [2] stood at 1.25, the fractional viability under setting [3] came to 0.802 and the fractional viability under setting [4] amounted to 1.11.
In the case of `O=C(Oc1ccc([N+](=O)[O-])cc1)N1CCC(C(O)(c2ccc3c(c2)OCO3)c2ccc3c(c2)OCO3)CC1`, the fractional viability came to 0.783 under setting [1], 1.08 under setting [2], 0.68 under setting [3] and 1.09 under setting [4].
Take `C[C@@H]1CC[C@H]2[C@@H](C)C(=O)O[C@@H]3O[C@@]4(C)CC[C@@H]1[C@]32OO4` [Artemisinin]: the fractional viability under setting [1] is 0.798, the fractional viability under setting [2] is 0.942, the fractional viability under setting [3] was 0.722 and the fractional viability under setting [4] stood at 0.857.
For `Cc1c(Cl)c(OCC(=O)N2CCN(C)CC2)nc2sc(C(=O)NC3CC3)c(N)c12`, the fractional viability by setting is: under setting [1], 0.691; under setting [2], 1; under setting [3], 0.801; under setting [4], 0.737.
Regarding `C/C=C(\C)C(=O)N[C@@H](c1ccccc1)[C@@H](O)C(=O)O[C@H]1C[C@@]2(O)[C@@H](OC(=O)c3ccccc3)[C@@H]3[C@]4(OC(C)=O)CO[C@@H]4C[C@H](O)[C@@]3(C)C(=O)[C@H](OC(C)=O)C(=C1C)C2(C)C` [Cephalomannine], the fractional viability is 0.16 under setting [1], 0.192 under setting [2], 0.184 under setting [3] and 0.194 under setting [4].
For the molecule `CCC(COC(=O)c1cc(OC)c(OC)c(OC)c1)(c1ccccc1)N(C)C` (centres undefined) [Trimebutine], the fractional viability was 0.973 under setting [1], 1.04 under setting [2], 0.853 under setting [3] and 0.994 under setting [4].
Consider `NCCc1c[nH]c2ccc(O)cc12` [Serotonin HCl], for which the fractional viability under setting [1] stood at 0.85, the fractional viability under setting [2] amounted to 1, the fractional viability under setting [3] came out at 0.903 and the fractional viability under setting [4] is 0.986.
With `COc1ccc(C[C@H]2NC[C@H](O)[C@H]2OC(C)=O)cc1` [Anisomycin], the fractional viability under setting [1] was determined as 0.109, the fractional viability under setting [2] was determined as 0.0785, the fractional viability under setting [3] was 0.118 and the fractional viability under setting [4] turned out to be 0.0319.
Take `COc1ccc2c(c1)/C(=C/c1cnc[nH]1)C(=O)N2`: the fractional viability runs as follows: under setting [1], 1.01; under setting [2], 0.927; under setting [3], 0.454; under setting [4], 0.378.
As to `C[C@@]12N[C@@H](Cc3ccccc31)c1ccccc12` [(-)-MK 801 Maleate], the fractional viability under setting [1] turned out to be 1.15, the fractional viability under setting [2] worked out at 1.15, the fractional viability under setting [3] was determined as 0.771 and the fractional viability under setting [4] came to 1.01.
On to `Cc1cccc([C@H](C)c2c[nH]cn2)c1C` [Dexmedetomidine], for which the fractional viability is, setting by setting: under setting [1], 1.06; under setting [2], 1.23; under setting [3], 0.8; under setting [4], 1.05.
For the molecule `C#C[C@]1(O)C=C[C@H]2[C@@H]3CCC4=CC(=O)CC[C@@H]4[C@H]3CC[C@@]21CC` [Gestodene], the fractional viability is 1.13 under setting [1], 1.04 under setting [2], 0.861 under setting [3] and 0.945 under setting [4].
Turning to `NCC(=O)O.[C-]#[O+].[C-]#[O+].[C-]#[O+].[Cl][Ru]`, the fractional viability runs as follows: under setting [1], 0.755; under setting [2], 1.02; under setting [3], 0.821; under setting [4], 0.739.
